Assay results from PubChem BioAssay AID1346428 (National Center for Advancing Translational Sciences (NCATS), 2018).
Several values for one entry are separate records, joined by “and”; a condition that tells them apart may be missing. Equal entries are not always repeated. In all, about 48,000 compounds went through this assay and about 1,200 (2.5%) were called active. Not shown: some 2% with an inconclusive outcome.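 Rule for the calls: active = activation of at least 60% and not above a set upper limit (about 1 call in 100 departs from these limits); inconclusive = activation of 40% to 60%, or above that upper limit; inactive = activation under 40%.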 This is one part of the list.

Target: Probable G-protein coupled receptor 32 (Homo sapiens) (UniProt O75388)
UniProt O75388, sequence (O75388 whole entry, looked up): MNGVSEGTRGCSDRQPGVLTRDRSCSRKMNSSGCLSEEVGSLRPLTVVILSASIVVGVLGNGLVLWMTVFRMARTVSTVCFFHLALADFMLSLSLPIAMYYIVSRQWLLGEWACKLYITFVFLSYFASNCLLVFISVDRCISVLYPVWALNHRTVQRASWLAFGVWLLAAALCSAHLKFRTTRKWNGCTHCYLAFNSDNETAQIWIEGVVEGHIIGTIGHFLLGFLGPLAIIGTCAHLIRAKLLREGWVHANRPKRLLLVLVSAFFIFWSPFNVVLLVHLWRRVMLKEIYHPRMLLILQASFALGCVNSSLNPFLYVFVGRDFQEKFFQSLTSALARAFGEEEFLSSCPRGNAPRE
Assay: qHTS for Agonists of Human Resolvin D1 Receptor DRV1
Settings: CHO-K1 GPR32 beta-arrestin PathHunter luminescence, 90 min; at 76.9 µM; stronger effect = higher value; zero percent set by DMSO-only wells
Procedure, shortened: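 Using DMSO wells as EC0, agonist-induced signal was taken as chemiluminescence from beta-Gal reconstituted upon beta-arrestin recruitment to GPR32 in CHO-K1 cells after 90 min compound treatment.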

activation, inactive:
CC1CCc2c(sc(NC(=O)COc3ccccc3)c2C(=O)Nc2ccccc2Cl)C1 (stereo unspecified) 5.36%, CN(C)CCOC(C)(c1ccccc1)c1ccccn1 (stereo unspecified) 18.9% and 5.61%, Cc1ccc(-n2nc(C(=O)NCCN(C)C)c(=O)n(C)c2=O)cc1 -1.78%, Cc1ccc(CSCC(=O)N2CCN(c3cc(Cl)ccc3C)CC2)cc1 -24.3%, C=CCNC(N)=S -0.854%, Cc1ccc2oc(C(=O)N(Cc3ccccc3F)C3CCS(=O)(=O)C3)c(C)c2c1 (stereo unspecified) -25.5%, Cc1[nH]c2ccccc2c1C(=O)C(=O)NC1CC(=O)N(c2cccc(F)c2)C1 (stereo unspecified) -1.99%, COc1cccc(-c2cc(=O)c3ccccc3o2)c1N -11.3%, COc1cccc(NC(=O)CC2C(=O)OCCN2Cc2ccccc2)c1 (stereo unspecified) 4.8%, COc1ccc(C2C(C(N)=O)=C(C)Nc3nc(-c4ccccc4Cl)nn32)cc1 (stereo unspecified) -20%, CC(=O)c1ccc2c(c1)N(CCCN(C)C)c1ccccc1S2 16.5%, Cc1ccc(-c2nn(CC(=O)NC3CCCCC3)c3c2cnc2ccc(F)cc23)cc1C -8%, CCOc1cccc2cc(-c3nnc(Nc4ccc(F)c(Cl)c4)s3)c(=O)oc12 7.36%, CCCCOc1ccc(-c2cc3c(=O)n(CC(=O)Nc4ccc(Cl)cc4Cl)ccn3n2)cc1 6.52%, O=C(CSc1nc2c(cnn2-c2ccc(F)cc2)c(=O)[nH]1)Nc1ccc(Br)cc1 39.9%, Cn1c(=O)[nH]c(=O)c2c1nc1n(CCO)c(-c3ccccc3)cn21 5.55%, COc1ccccc1CNC(=O)c1ccc2c(c1)sc1nc(-c3ccc(F)cc3)cn12 -14.9%, CC(C)C(=O)OC1=CN(Cc2ccccc2)S(=O)(=O)c2ccccc21 -6.51%, COc1cccc(CNC(=O)c2cc(=O)[nH]c3ccc(S(=O)(=O)N4CCCCC4)cc23)c1 -3.54%, Cc1ccc(Cl)cc1NC(=O)CN(C)S(=O)(=O)c1ccc2c(c1)n(C)c(=O)c(=O)n2C -17.1%, Cc1cccc(C)c1Nc1c(-c2ccc(Cl)s2)nc2ncccn12 -15.4%, COCCNC(=O)CCc1nc2cccnc2n1Cc1ccc(OC)cc1 -7.43%, CCc1ccc(OC(C)C(=O)Nc2c(C(=O)c3ccccc3)oc3ccccc23)cc1 (stereo unspecified) -29.4%, COc1ccc(Cl)cc1NC(=O)c1cc2c(s1)-c1ccccc1OC2 -5.8%, CS(=O)(=O)N(CC(=O)NCCSc1ccccc1)c1cc(C(F)(F)F)ccc1Cl 20%, Oc1c(Br)cc(Br)cc1-c1nc2ccccc2s1 -4.23%, COc1ccc(OC)c(NC(=O)CSc2cn(CC(=O)N3CCOCC3)c3ccccc23)c1 -22%, COc1cccc(C2C(C(=O)Nc3ccccc3)=C(C)Nc3nc(-c4ccccc4)nn32)c1 (stereo unspecified) -11%, Cc1ccc(-c2nc(CS(=O)CC(=O)N3CCN(c4ccccc4)CC3)c(C)o2)cc1 (stereo unspecified) -6.83%, O=C(c1ccccc1)c1ccccc1NC(=O)c1ccccc1C(=O)O -6.94%, CCCN(CCC)C(=O)C1CCCN(S(=O)(=O)c2ccc3c(c2)oc(=O)n3C)C1 (stereo unspecified) -30.3%, COc1ccc(-c2noc(-c3ccc(NC4CCCC4)c([N+](=O)[O-])c3)n2)cc1 -20.4%, CC(=O)c1ccc(N2CCN(C(=O)c3cc4cc5cc(C)ccc5nc4s3)CC2)cc1 -7.81%, CCN(CC)c1cc(C)c2cc(NC(=O)/C=C/c3ccc(C)cc3)ccc2n1 12.2%, C[N+](C)(C)CCO -4.9%, CCCCCCCCCCCCCCC[C@H](O)[C@H](N)CO 6.16%, Cc1ccc(C(=O)c2oc3ccccc3c2NC(=O)c2cc(-c3ccccc3)on2)cc1F -5.06%, Cc1ccc(C)c(NC(=O)C2CCCN(S(=O)(=O)c3ccc4[nH]c(=O)ccc4c3)C2)c1 (stereo unspecified) -12.7%, CC(C)Oc1ccc(CNS(=O)(=O)c2cnc(N)nc2)cc1 -3.74%, CC(C)Cn1cnc2c1c(=O)n(C)c(=O)n2C -8.78%, CCOc1cc(CNCCSc2nnnn2-c2ccccc2)cc(Cl)c1OC 13.3%, CCOc1ccc(CCNC(=O)Cn2nnc(-c3ccc(OC)c(OC)c3)n2)cc1OCC -8.99%, CN1CCN(C(CNC(=O)C(=O)Nc2ccc(F)cc2F)c2ccc3c(c2)OCO3)CC1 (stereo unspecified) 9.38%, CC(C)(C#N)c1cc(Cn2cncn2)cc(C(C)(C)C#N)c1 -16%, Cc1ccc2nc(-c3ccc(NC(=O)COc4c(C)ccc(C)c4C)cc3)sc2c1 19.2%, COc1cc(NC(=O)c2nnn(CC(=O)Nc3ccccc3)c2N)cc(OC)c1 17.7%, CSc1nc(-c2ccc(F)cc2)nc2c1Cc1c(CO)cnc(C)c1O2 11.8%, CCCc1nn2c(=O)cc(COC(=O)c3ccc(NC(=O)C(C)Oc4ccccc4)cc3)nc2s1 (stereo unspecified) -14.3%, CCCCNc1nc(Oc2ccc(=O)n(C)n2)nc(N(C)C)n1 -5.4%, O=C(NC1CCCCC1)c1ccc2c(c1)N(Cc1ccccc1)C(=O)c1ccccc1S2 -6.24%, O=C(CN1C(=O)C2(SCC(=O)N2c2ccccc2)c2ccccc21)NCc1ccccc1Cl (stereo unspecified) -4.91%, COc1ccc(C(=O)c2cn(Cc3ccc(C)cc3)c3cc4c(cc3c2=O)OCO4)cc1 7.38%, COc1cc(NC(=O)CCS(=O)(=O)c2nc(-c3cccs3)cc(C(F)(F)F)n2)cc(OC)c1OC -32.9%, COc1ccccc1-c1noc(CSc2nc3ccc(C)cc3[nH]2)n1 34.3%, O=C(CSc1cn(CC(=O)N2CCCCC2)c2ccccc12)Nc1ccccc1F 5.25%, Cc1ccc2c(CC(=O)Nc3ccccc3C(F)(F)F)coc2c1C -0.704%, CC(CNC(=O)C1CCN(Cc2cc3ccccc3n2Cc2ccccc2)CC1)c1ccccc1 (stereo unspecified) -24.4%, Cc1c(Cl)cccc1NC(=O)CCn1c(=O)c2cccn2c2ccccc21 -12.6%, CCOc1ccccc1NC(=O)CSc1nccn1-c1ccc(Cl)cc1 -6.74%, COc1ccc(CCNC(=O)c2cc(-c3ccccc3)nc3ccccc23)cc1OC 17.3%, COC(=O)c1scc(-c2ccc(C)cc2)c1S(=O)(=O)Nc1cccc(C(F)(F)F)c1 0.278%, CCn1cc(C(=O)OCC(=O)Nc2cc(C)cc(C)c2)c(=O)c2ccc(C)nc21 20.2%, Cc1nn(CCCC(=O)NCc2ccccc2)c(=O)c2nn(-c3ccccc3)c(C)c12 -4.31%, C[C@@H](O)[C@H]1C(=O)N2C(C(=O)O)=C(S[C@@H]3CN[C@H](CNS(N)(=O)=O)C3)[C@H](C)[C@H]12 11.6%, O=C(CSc1nc2ccccc2c(=O)n1CCC(=O)NC1CCCCC1)Nc1ccccc1Cl -8.54%, COC(=O)c1sc2cccc(F)c2c1S(=O)(=O)Nc1cc(OC)cc(OC)c1 -3.11%, CCOc1ccc(CC(=O)Nc2nnc3n2CCS3)cc1 -1.26%, O=C(CSc1cn(CC(=O)N2CCCCCC2)c2ccccc12)Nc1ccccc1F 8.23%, CCc1nnc2c(NCc3ccccc3OC)nc3ccccc3n12 -8.72%, CC(C)c1nnc(N2C(=O)c3oc4ccccc4c(=O)c3C2c2cccc(O)c2)s1 (stereo unspecified) -8.19%, CCC(=O)N1CCc2cc(S(=O)(=O)NCCC(=O)Nc3ccc(OC)c(Cl)c3)ccc21 22.3%, CCN(C(=O)C1CCN(S(=O)(=O)c2ccc3c(c2)CCCN3C(=O)C2CCC2)CC1)c1cccc(C)c1 3.31%, Cc1c(Cl)cccc1NC(=O)c1cnc2sc(N3CCCC3)nn2c1=O -0.859%, Cc1ccc(NC(=O)Cn2c(=O)n(CCCCCC(=O)NCc3ccc(F)cc3)c(=O)c3sccc32)c(C)c1 5.47%, COCCN1Cc2cccc(C(=O)Nc3ccc(C)cc3C)c2C1=O 22.8%, COC(=O)CNC(=O)C(Cc1ccccc1)NS(=O)(=O)c1ccc2c(c1)c(=O)n(C)c(=O)n2C (stereo unspecified) -4.46%, O=C(COc1ccccc1)Nc1ccc(S(=O)(=O)N(Cc2ccccc2)c2ccccc2)cc1 7.15%, Cc1c(C(=O)NCc2ccc(N(C)C)cc2)oc2c1-c1nn(Cc3cccc(Cl)c3)cc1CC2 -30.3%, Cc1cc2c(cc1S(=O)(=O)N1CCC(C)CC1)OCC(=O)N2 -8.36%, COc1ccc(-c2nc(-c3ccccc3)c(-c3ccccc3)[nH]2)cc1Br 7.23%, CCCC12CN3CC(CCC)(CN(C1)C3c1c[nH]c3ccccc13)C2=O (stereo unspecified) -15.8%, Cc1ccc(-c2nnc(SCC(=O)N3CCc4ccccc43)o2)cc1 1.09%, Cc1cc(C)cc(NC(=O)Cn2c(=O)oc3cc(S(=O)(=O)N4CCCC4)ccc32)c1 -30%, COc1cccc(CNC(=O)c2cnc(N3CCCC3)nc2C)c1 13.8%, COc1ccc(S(=O)(=O)c2cn(C)c3cc(N4CCCC4)c(F)cc3c2=O)cc1 -11.2%, O=S(=O)(c1ccc2ccccc2c1)n1nc(-c2ccco2)nc1NCc1cccc(Cl)c1 -24.3%
